Laboratory results: the supplement of paper PMC3334620
The full ranking holds about 33,000 sequences; the median of “E-score (-0.5 to 0.5)” is about -0.013, and the highest 2% start at about 0.3. Some of the results follow.

These sequences were tested against T1, Msn1 (UniProt P22148) (assay: PBM E-score (8-mer binding enrichment) (E-score (-0.5 to 0.5)); higher = stronger / more preferred TF binding; most listed sequences are background and not binding sites). Settings: protein concentration: 200 nM; construct: GST-full length.
T1 sequence: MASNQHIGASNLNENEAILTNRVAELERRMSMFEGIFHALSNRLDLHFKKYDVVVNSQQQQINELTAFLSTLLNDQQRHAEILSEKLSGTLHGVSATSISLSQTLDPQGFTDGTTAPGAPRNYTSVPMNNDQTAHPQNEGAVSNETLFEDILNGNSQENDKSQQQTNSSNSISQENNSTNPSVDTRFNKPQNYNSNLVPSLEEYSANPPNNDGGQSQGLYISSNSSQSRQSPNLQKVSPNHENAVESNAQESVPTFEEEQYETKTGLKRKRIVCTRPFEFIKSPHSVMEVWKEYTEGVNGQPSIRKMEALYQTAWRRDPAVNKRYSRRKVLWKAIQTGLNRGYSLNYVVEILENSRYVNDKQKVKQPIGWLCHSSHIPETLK
How it was run: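 Each ungapped eight-base word and its reverse complement, pooled, received an E-score from the Universal PBM Analysis Suite. Underlying scans, normalised with masliner, recorded fluorescent anti-GST bound to GST-tagged yeast transcription factors. These were applied at about 100-200 nM to universal all-10-mer Agilent arrays double-stranded by primer extension.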

Sequence	PBM E-score
TCCGCTCA	-0.209
ATTGAAAC	0.0381
AGCCGGTG	-0.144
CTCGCAGA	-0.0145
ATCCTACC	-0.182
ACGTCCAT	0.219
GAGGGTAC	-0.202
AGGTGATC	0.0669
CTAGTGGC	-0.0686
AACAGGTA	-0.0409
AATAGGCC	-0.113
CGTCGAAC	-0.0425
AGACAAAC	0.446
CTTTAATA	0.193
ACATGCAG	0.152
CTACCGAG	-0.171
AGCAAGCC	-0.232
CCGGATGA	0.0502
AAGCGTGA	0.0467
CCTCGACC	-0.274
CTCAGCGA	0.14
CCACCCGG	-0.204
AACAAACT	0.127
ACTCAAAG	0.0435
AGTGGTCA	-0.147

Sequence	PBM E-score
ATGAGGTC	-0.152
CAAACGAA	0.0846
CCAAGACG	0.0171
ACTGTCCA	0.0386
CTTGTCGA	0.0891
AACCTATA	0.109
AGCTGGTC	-0.0428
CGTCTAAG	0.0381
ATCGACAG	-0.201
GTTGTCTA	0.165
CACACAGA	-0.00294
ACCTGGAT	-0.0377
TATCGATA	0.043
AGCCTAAG	-0.183
ACGCGTAT	0.217
GGAGTAGA	0.0313
ACTGTTTC	-0.119
ACCTATCT	0.0511
AGCCCGAC	-0.0378
GATCGAGC	-0.0432
GACCCCTA	-0.323
AATGAGGG	-0.104
GACAAAGC	0.393
CTTGCACA	0.00485
CCCACGTC	0.12

Sequence	PBM E-score
CGCGGCAG	-0.0189
AGAGCCAT	0.148
GCCAGTCC	-0.367
AGACCCCG	-0.0375
CTGCACTC	-0.185
CAGTTCCG	-0.0923
AAATTTGG	0.104
ATAAGCGC	-0.0259
ATGAGTCC	0.101
CACGCAAG	0.168
ACTGCACC	-0.0307
GTTAGTCA	0.00798
CGGGGACA	0.396
AACCGTGT	0.107
AGTGCCGG	0.112
GTTTGCCA	-0.0238
AAACCCAT	0.219
ACGAGACG	-0.186
ATGATGGG	-0.131
GCGTCAAC	-0.135
AGCTTGAT	-0.0595
CACTAAGC	-0.138
ATAGCAAG	-0.0015
CCGCGTAA	-0.0612
ATGCGCTA	0.0715

Sequence	PBM E-score
CTTAAGAC	-0.0376
TAGTCAAA	0.0718
CATTGAGC	0.0312
CGAAGAGC	-0.155
ACGGTCCT	-0.252
CGATCTTA	0.0983
TTACGGAA	0.139
CGTAAAAG	0.0215
CGATGCGC	-0.00688
AACGATAT	0.153
CAACTCAA	0.168
CTGAGGCA	-0.0849
AAAATCGA	0.0831
GCGTCTGA	-0.101
AAAATCCG	0.141
ATACTATA	0.111
ACACCAGA	0.0811
CCAAGGGC	-0.126
AAACGTTA	0.119
CGGAACCG	0.0482
CGTAACCA	-0.00232
CCTTCCCC	-0.246
CGCATGTC	0.426
GATACATA	0.152
CACGAGAG	-0.22

Sequence	PBM E-score
AATGGGAT	-0.125
CTAATCTC	-0.0562
TCAGCTAA	-0.0447
GACCTGAA	-0.00534
CGCGCGAG	-0.07
AGAACAAA	0.303
CAGCTAGC	-0.19
AAAGTGGG	-0.024
AATTATAT	0.138
AATGGACT	0.19
CTGACTGA	-0.227
CGGTTTAC	-0.155
TTTAGAAA	0.0834
CGATCTCC	0.00678
AGTCCTGA	0.242
GCTCTATA	-0.228
GATCATGC	-0.168
GTTCCAAA	0.12
CTAGGGTA	-0.203
ACCTCGAC	-0.00429
AATAGCAG	-0.153
AATCGGTG	-0.0473
ATTCTATC	0.121
AGGACACC	0.255
ACCGCTGA	-0.0555

Sequence	PBM E-score
GGCATATA	0.219
AGGTGGGA	-0.233
AATAAACA	0.188
ACGTTGTG	0.00695
CGGCGACA	0.0783
AATGGGAG	-0.106
GACTCCGA	-0.0831
GAGAAATC	0.19
ACGTCTCC	-0.128
CCAAACGC	-0.0457
TGGGTAAA	0.113
TAAAAACA	0.144
ACCCGATG	0.112
GCACAGCC	-0.194
ATCTTTGA	-0.0173
GCCGACAA	0.117
AAGCCCGT	-0.386
AAGACTAG	-0.194
GTCTTGAA	0.2
CTTCAGCA	-0.169
CGGATTCC	-0.0354
AGGTAACC	-0.229
ACACCAAA	0.226
GCTGGAAC	-0.316
GCACGTGC	0.114

Sequence	PBM E-score
AAAACAAA	0.215
CGTCACGC	0.011
CCCGATCC	-0.209
GCATTTAC	0.0372
AATAGTTG	0.107
GAGGGCGA	-0.355
CTGATTCC	-0.166
CAGAGGTC	-0.121
CACGCCAC	-0.127
AAGCACGA	-0.0347
GGGAAAAA	0.185
AGCCCACC	-0.321
ACATTGAT	0.19
AGTTGCCC	0.0155
AGGAAGTC	-0.0428
AAGGCAAG	-0.145
GCCCGACC	-0.247
AGTAATGA	0.0598
CGCGCCTC	-0.0849
AGTAGATA	0.194
AAGTCAGT	0.112
CGAGGAGA	-0.141
